# Laboratory results from the supplement of paper PMC10986608.
# Some of the results follow. Most values come without repeats; read them as rough.
# Tested on: Candida albicans DPL-15
# Experiment: growth (OD600) after compound treatment (apparently relative to screen median) (relative growth (fraction; screen median 1.02)); DPL-15 is a caspofungin-resistant clinical isolate; higher = more fungal growth (less antifungal activity)
# Details: 25 µM; RPMI 1640; 48 h; 30 °C
row,SMILES,growth
1,C/C=C(\C)C1=C2CC[C@H](C(C)C)O[C@@H]2CCCN1S(=O)(=O)c1ccc(C)cc1,0.977
2,CCc1ccccc1-n1nc(C)c2c1C(=O)NC2c1cccc(C(F)(F)F)c1 (centres undefined),0.859
3,CO[C@@H]1CCN(C(=O)c2c(O)cc(O)cc2Nc2cnn(CCN(C)C)c2)C1,1.12
4,Cc1ccc(S(=O)(=O)Oc2c(C[C@@]34CCCCC3=Nc3ccc(F)cc34)occc2=O)cc1,1.08
5,COc1ccccc1Cn1nc(C(C)C)c2c1C(=O)NC2c1ccc2c(c1)OCO2 (centres undefined),0.853
6,C[C@H]1C[C@@H]2CC(=O)N[C@H](Cc3ccccc3)C(=O)N2[C@H]1C1CC1,0.954
7,CC(=O)C1=C2C=CCCN2C(=O)NC1c1ccc(Br)c(F)c1 (centres undefined),1.28
8,CCCCC1=Nc2ccccc2[C@@]1(CCC)Cc1occc(=O)c1OS(C)(=O)=O,0.981
9,CCOC(=O)c1nnc(-c2ccccc2)c(=O)[nH]1,1
10,Cn1nc2c(c1-c1ccccc1)C(c1ccc(Br)cc1)N(c1ccccc1)C2=O (centres undefined),1.09
11,CCN(CC)CCCNC1=NC(c2ccc(Cl)cc2)C(C(=O)OC)=C(C)N1Cc1cccc(C(F)(F)F)c1 (centres undefined),0.959
12,COC1(OC)C(=O)C=C[C@H]2[C@@H]1[C@H]1C=C[C@@H]2C(=O)C1(OC)OC,0.922
13,CC(C)CC1=NCC(C)(C)NC2=C1C(c1ccc(F)cc1)NC2=O (centres undefined),0.91
14,COC(=O)[C@@]12Oc3cccc(O)c3C(=O)C1=C(O)CC[C@@H]2O,1.19
15,CO[C@@H]1CCN(C(=O)c2c(O)cc(O)cc2Nc2cn(C)nc2C)C1,1.09
16,COc1ccc(-c2c(CO)c(CO)cc3cc4c(cc23)OCO4)cc1,1.06
17,COC(=O)C/C=C/[C@H](C)[C@H](NC(=O)C(F)(F)F)c1ccc(-c2ccccc2)cc1,1
18,COc1ccc(N2C(=O)c3[nH]nc(CC(C)C)c3C2c2ccc(F)cc2OC)cn1 (centres undefined),0.996
19,Cc1cc(Nc2cc(O)cc(O)c2C(=O)N2CC3CC3C2)n(C)n1 (centres undefined),1.09
20,CCCOc1ccc(/C=C/C(=O)O)c(OCCC)c1,1.03
21,COc1ccc(N2C(=O)c3[nH]nc(CC(C)C)c3C2c2cccc(Br)c2)cc1 (centres undefined),1.11
22,C=CCC1=C(OC)C(CC=C)(C/C=C/c2ccccc2)C(O)=C(C(=O)c2ccccc2)C1=O (centres undefined),0.953
23,COc1ccc(N2C(=O)c3[nH]nc(CC(C)C)c3C2c2ccc(C(F)(F)F)cc2)cc1 (centres undefined),1.13
24,C#Cc1ccccc1N1C[C@@]2(O)CC[C@@H](O)[C@@H](OC)[C@@H]2[C@@](C)(O)[C@@H]1CC=C(C)C,1.07
